# From PubChem BioAssay AID1347165 (National Center for Advancing Translational Sciences (NCATS), 2019)
# In all, about 220,000 compounds went through this assay and about 5,700 (2.6%) were called active. Inconclusive means that the source gave no clear call. Such entries were picked first, then a sample of the others. The call rests on the fitted dose curve; in most records, active means well fitted inhibition curve with a large enough effect; inconclusive means small, poorly fitted or top-dose-only effect; inactive means no such curve, though single readings can be large or run the other way. Potencies beside an inconclusive call are fits to weak or partial responses and may not hold up.
# Target: Lysine-specific demethylase 5B (Homo sapiens) (UniProt Q9UGL1)
# UniProt Q9UGL1, sequence (Q9UGL1 whole entry, looked up): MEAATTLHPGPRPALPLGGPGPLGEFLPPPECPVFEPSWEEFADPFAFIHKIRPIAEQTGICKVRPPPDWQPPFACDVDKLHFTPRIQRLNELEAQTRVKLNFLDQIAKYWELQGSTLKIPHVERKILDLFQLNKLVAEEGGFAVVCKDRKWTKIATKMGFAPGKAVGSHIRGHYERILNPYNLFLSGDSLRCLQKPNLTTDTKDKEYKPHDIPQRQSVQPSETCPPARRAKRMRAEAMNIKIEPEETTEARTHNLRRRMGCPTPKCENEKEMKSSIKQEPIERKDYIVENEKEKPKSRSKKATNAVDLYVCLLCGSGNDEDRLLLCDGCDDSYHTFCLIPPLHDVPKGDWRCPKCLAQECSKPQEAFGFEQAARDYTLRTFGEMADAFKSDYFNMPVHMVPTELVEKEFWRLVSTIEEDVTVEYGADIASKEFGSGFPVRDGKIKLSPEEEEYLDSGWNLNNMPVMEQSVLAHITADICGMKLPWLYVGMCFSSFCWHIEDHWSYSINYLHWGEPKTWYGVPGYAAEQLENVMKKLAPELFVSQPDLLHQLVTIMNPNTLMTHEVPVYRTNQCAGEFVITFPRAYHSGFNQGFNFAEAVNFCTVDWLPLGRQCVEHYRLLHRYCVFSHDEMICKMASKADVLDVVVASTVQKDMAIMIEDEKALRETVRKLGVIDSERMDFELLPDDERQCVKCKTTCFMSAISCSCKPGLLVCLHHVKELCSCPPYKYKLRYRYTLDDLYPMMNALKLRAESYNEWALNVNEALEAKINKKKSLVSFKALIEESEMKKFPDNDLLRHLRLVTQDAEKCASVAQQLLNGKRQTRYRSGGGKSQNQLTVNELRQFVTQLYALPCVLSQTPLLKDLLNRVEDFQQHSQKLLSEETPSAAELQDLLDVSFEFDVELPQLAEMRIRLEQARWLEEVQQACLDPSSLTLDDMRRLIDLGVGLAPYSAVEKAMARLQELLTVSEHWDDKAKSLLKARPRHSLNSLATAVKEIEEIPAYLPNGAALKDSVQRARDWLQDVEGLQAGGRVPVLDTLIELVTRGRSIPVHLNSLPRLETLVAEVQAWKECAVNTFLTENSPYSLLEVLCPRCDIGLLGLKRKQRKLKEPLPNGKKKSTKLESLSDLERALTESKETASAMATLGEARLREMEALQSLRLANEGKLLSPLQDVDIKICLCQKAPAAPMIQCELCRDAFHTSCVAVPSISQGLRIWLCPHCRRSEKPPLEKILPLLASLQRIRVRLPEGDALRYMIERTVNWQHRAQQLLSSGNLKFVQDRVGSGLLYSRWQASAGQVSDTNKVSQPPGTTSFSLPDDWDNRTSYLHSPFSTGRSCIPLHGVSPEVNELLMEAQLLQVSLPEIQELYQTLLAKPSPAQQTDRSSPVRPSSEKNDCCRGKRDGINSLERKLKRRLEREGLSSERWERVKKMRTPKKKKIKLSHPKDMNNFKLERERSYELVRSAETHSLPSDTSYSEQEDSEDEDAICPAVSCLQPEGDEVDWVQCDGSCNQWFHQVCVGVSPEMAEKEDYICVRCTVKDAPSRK
# Experiment: Primary screen for KDM5B Histone Demethylases FDH-coupled qHTS; further: nearly all actives have a fitted effect of over 70% in size; on activity change, negative = inhibition: 0% is about no effect
# Details: FDH-coupled NADH fluorescence (FDH is formaldehyde dehydrogenase); activity change, negative = inhibition: at 57.7 µM (top of the series) unless noted
# Summary of the method: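 Inhibition is measured as reduced NADH fluorescence generation from FDH coupling to formaldehyde release. Truncated KDM5BΔAP at 200 nM final acts on H3K4me3 peptide (12.5 µM in substrate mix) in pH 7.5 HEPES buffer with Tween-20, 30 min, room temperature.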
# Potency means the concentration at half of the fitted maximal effect; tags describe the fitted curve by direction and shape.
Structure (SMILES),Potency,"activity change, negative = inhibition"
COc1ccc(CCNC(=O)c2nn(C)c3c2CSc2ccccc2-3)cc1OC,"inconclusive: 25.1 µM [inhibitor, partial curve, poor fit]",–
CCOC(=O)C(O)(c1ccc(N(C)C(=O)Nc2ccc(Cl)c(Cl)c2)cc1)C(F)(F)F (stereo not given),inactive,–
O[C@H]1[C@H](NCc2ccc(-c3ccccc3)cc2)[C@H]2CO[C@H](O2)[C@@H]1Oc1ccccc1,"inconclusive: 35.5 µM [inhibitor, single point]",–
N#Cc1nc(-c2ccc(F)cc2)oc1NCc1ccc(Cl)cc1,"inconclusive: 35.5 µM [inhibitor, partial curve, poor fit]",–
COCC1CN(C2CCC2)CC12CCN(C(=O)COc1cccc(C)c1)CC2 (stereo not given),"inconclusive: 31.6 µM [inhibitor, partial curve]",–
CCn1nc(CC(C)C)cc1C(=O)N1CCN(c2nc(C)cc(C)n2)CC1,"inconclusive: 35.5 µM [inhibitor, partial curve, poor fit]",–
CCOc1nc(NC(=O)NS(=O)(=O)Oc2ccccc2Cl)nc(-c2ccccc2)n1,"inconclusive: 44.7 µM [inhibitor, single point]",–
Cc1ccc(C)n1-c1nnc(N2CCCC(C(=O)NCc3ccccc3)C2)s1 (stereo not given),–,inconclusive: -30.3% [inhibitor]
CNC(=O)c1ccc(Nc2nnc(-c3ccc(C)c(S(=O)(=O)N4CCOCC4)c3)c3ccccc23)cc1,"inconclusive: 39.8 µM [inhibitor, single point]",–
CCOC(=O)c1ccccc1NC(=O)N(Cc1ccco1)C1CCN(C(C)=O)CC1,"inconclusive: 35.5 µM [inhibitor, single point]",–
NC(=O)CSc1nc2c(sc(=S)n2-c2ccccc2)c(=O)[nH]1,"inconclusive: 39.8 µM [inhibitor, single point]",–
COc1cc(/C=N/OC(=O)c2ccc(C(F)(F)F)cc2)ccc1OCc1ccccc1,inactive,–
COCc1ccc2c(c1)c(OC(C)(C)C(=O)NCCc1cnc[nH]1)nn2Cc1ccccc1,"inconclusive: 28.2 µM [inhibitor, single point]",–
O=C(O)CCCC(=O)Nc1cccc(C(=O)N2CCCCC2)c1,inactive,–
O=c1[nH]nc(-c2ccco2)c2c1Nc1nnnn1C2c1ccc(Cl)cc1 (stereo not given),"inconclusive: 20 µM [inhibitor, partial curve, poor fit]",–
CC(=O)NCC(=O)N1c2ccccc2CC1c1nc(C(C)C)no1 (stereo not given),inactive,–
CCOc1ccc(-c2nc(CNC(=O)Nc3ccccc3OCC)c(C)o2)cc1,"inconclusive: 8.91 µM [inhibitor, full curve, poor fit]",–
O=C(NCC1(COc2ccccc2)C[C@@H](O)[C@@H](O)C1)c1ccc(F)cc1 (stereo not given in full),"inconclusive: 39.8 µM [inhibitor, single point]",–
O=C(O)c1cc2ccc(OCc3ccccc3)cc2[nH]1,"inconclusive: 28.2 µM [inhibitor, partial curve, poor fit]",–
COc1ccccc1C(=O)Nc1ccc(C(=O)OCc2cc(=O)n3ccsc3n2)cc1,"inconclusive: 15.8 µM [inhibitor, partial curve, poor fit]",–
CCCC(C)N1CC2(CCN(C(=O)c3cnn4c3CCCC4)CC2)OC1=O (stereo not given),"inconclusive: 25.1 µM [inhibitor, partial curve, poor fit]",–
CCC(C)C1=NS(=O)(=O)c2cc(NC(=O)c3ccco3)ccc2N1c1ccccc1 (stereo not given),"inconclusive: 39.8 µM [inhibitor, single point]",–

Structure (SMILES),Potency,"activity change, negative = inhibition"
O=C(Cn1cc(I)c(=O)c(I)c1)N1CCCCC1,inactive,–
COc1cccc(CSc2nc3n(n2)C(c2cccnc2)C(C(=O)Nc2ccccc2C)=C(C)N3)c1 (stereo not given),–,inconclusive: -30.5% [inhibitor]
COc1ccc(-c2ccc3c(N)c(C(=O)Nc4cccc(C)c4)sc3n2)cc1,"inconclusive: 25.1 µM [inhibitor, partial curve, poor fit]",–
Cc1ccc(SCc2ccc(C(=O)Nc3ccc(C)cc3C)cc2)cc1,inactive,–
CC(C(=O)N(C)CC(=O)Nc1ccccc1C(F)(F)F)N1CCN(Cc2ccccc2F)CC1 (stereo not given),inactive,–
CCCCCCc1cc2c3c(c(=O)oc2cc1OCC(=O)C(C)(C)C)CCC3,inactive,–
CC(C)n1cc2cc(C(=O)NC3CCCCCC3)sc2c1,"inconclusive: 22.4 µM [inhibitor, single point]",–
CCCNC(=O)c1ccccc1NC(=O)Cn1cnc2c1c(=O)n(C)c(=O)n2C,inactive,–
COC(=O)CCOc1ccc(S(=O)(=O)Nc2ccc(OC)c(Cl)c2)cc1,inactive,–
Cc1ccc(NC(=O)c2cc(S(=O)(=O)NC3CCCCCC3)ccc2F)cc1F,inactive,–
Clc1ccc(NCCN2CCCC2)cc1,"inconclusive: 79.4 µM [inhibitor, partial curve, poor fit]",–
Cc1noc(C)c1-c1cnc(Nc2cc(F)cc(N3CCOCC3)c2)c2c1CCO2,"inconclusive: 28.2 µM [inhibitor, partial curve, poor fit]",–
O=c1[nH]cnc2scc(-c3ccc(Cl)cc3)c12,inactive,–
O=C(/C=C/c1ccc(Cl)cc1)NC(=S)Nc1ccc(C(=O)O)cc1,"inconclusive: 1.58 µM [inhibitor, partial curve, poor fit]",–
CCNC(=O)NC(=O)COC(=O)c1c[nH]c2ccccc12,inactive,–
O=C(NCc1cccnc1)c1ccccc1NS(=O)(=O)c1ccc(F)cc1,"inconclusive: 25.1 µM [inhibitor, partial curve, poor fit]",–
Cc1ccc(CN2C(=O)C(O)(CC(=O)c3ccc(C)cc3)c3ccccc32)cc1 (stereo not given),"inconclusive: 25.1 µM [inhibitor, partial curve, poor fit]",–
O=C(OCc1ccc(Cl)c(Cl)c1)c1ccccc1Oc1ccccc1,inactive,–
CCOC(=O)C1CCCN(C(=O)Cn2c(=O)cc(C)c3c(C)nn(C)c32)C1 (stereo not given),"inconclusive: 17.8 µM [inhibitor, partial curve, poor fit]",–
CC(C(=O)N1CCN(c2cc(-c3ccc(Cl)cc3)[nH]n2)CC1)c1ccccc1 (stereo not given),inactive,–
COc1ccc(C(=O)c2cnc3ccc(C)cc3c2S(=O)(=O)c2ccccc2)cc1,"inconclusive: 31.6 µM [inhibitor, partial curve, poor fit]",–
CCc1c(C)sc(NC(=O)c2ccc(F)cc2)c1C#N,"inconclusive: 14.1 µM [inhibitor, partial curve, poor fit]",–

Structure (SMILES),Potency,"activity change, negative = inhibition"
COc1ccc(CNC(=O)N2CCCCC2c2noc(COc3ccc(C)cc3)n2)cc1 (stereo not given),inactive,–
CCCCn1c(=O)[nH]c(=O)c2c1nc(COC(=O)c1cc(C)cc(C)c1)n2CCC,inactive,–
Cc1ccc(-c2ncc(C(=O)N3CCOC(CCN)C3)c(=O)[nH]2)cc1 (stereo not given),"inconclusive: 15.8 µM [inhibitor, partial curve, poor fit]",–
CCc1nc(N2CCOCC2)ncc1C(=O)O,active: 25.1 µM,–
CCOc1cc(/C=N/Nc2nnc(C)n2N)ccc1O,"inconclusive: 20 µM [inhibitor, single point]",–
Cc1c(O)cccc1C(=O)N1CCCN(Cc2ccc(F)cc2)C(C(C)C)C1 (stereo not given),inactive,–
O=C(O)CCc1oc2cc(O)ccc2c(=O)c1-c1nc2ccccc2[nH]1,"inconclusive: 25.1 µM [inhibitor, partial curve, poor fit]",–
COc1ccc(C(=O)/C=C/c2ccc(OCc3ccccc3)cc2)cc1CSCC(=O)O,"inconclusive: 28.2 µM [inhibitor, partial curve, poor fit]",–
CC(c1nn[nH]n1)n1ccnc1-c1cn(C2CCNCC2)nn1 (stereo not given),"inconclusive: 11.2 µM [inhibitor, partial curve, poor fit]",–
O=C(CCC1CCN(S(=O)(=O)c2ccccc2F)CC1)NC1CCS(=O)(=O)C1 (stereo not given),inactive,–
FC(F)(F)c1ccc(CN2CC[C@H](c3nc4ccc(C(F)(F)F)cc4[nH]3)C2)cc1,"inconclusive: 28.2 µM [inhibitor, partial curve]",–
COc1cc(CN(C(=O)COc2ccc(Cl)cc2)c2ccccn2)cc(OC)c1OC,"inconclusive: 35.5 µM [inhibitor, single point]",–
O=C(O)Cc1ccc(N2C(=O)C(=O)/C(=C(/O)c3ccccc3Cl)C2c2ccccc2F)cc1 (stereo not given),inactive,–
O=C(NC1CCCC1)N1CCC(Nc2cccnc2)C1 (stereo not given),"inconclusive: 20 µM [inhibitor, partial curve]",–
COC(=O)c1cc(NC(=O)CC2Oc3ccccc3NC2=O)cc(C(=O)OC)c1 (stereo not given),"inconclusive: 35.5 µM [inhibitor, single point]",–
O=C(CSc1nncc(=O)[nH]1)Nc1cccc([N+](=O)[O-])c1,"inconclusive: 22.4 µM [inhibitor, partial curve, poor fit]",–
Cc1nc(N2CCCC2)ncc1C(=O)NCc1ccc(Cl)cc1,"inconclusive: 25.1 µM [inhibitor, single point]",–
CC(=O)Nc1ccc2[nH]cc(C(C(=O)O)N3CCN(c4cc(C)c5ccccc5n4)CC3)c2c1 (stereo not given),"inconclusive: 39.8 µM [inhibitor, single point]",–
Cc1noc(C)c1-c1cc2cc(C(C)C)oc2c(NC2CCOCC2)n1,"inconclusive: 50.1 µM [inhibitor, single point]",–
Cc1ccc2oc(-c3ccccc3)cc(=NCCCCCC(=O)O)c2c1,"inconclusive: 39.8 µM [inhibitor, partial curve, poor fit]",–
Cc1ccc(NC(=O)NCCOCCn2c(=O)oc3ccccc32)c(C)c1,"inconclusive: 7.08 µM [inhibitor, partial curve, poor fit]",–
